Target: Mammalian PARP, isolated from Hela cell nuclear extract (Homo sapiens, UniProt P09874)
Experiment: PARP inhibition assay (FlashPlate, 3H-NAD scintillation)
Type: biochemical
Settings: NAD 5 μM, 30° C.
Description: In order to assess the inhibitory action of the compounds, the following assay was used to determine IC50 values (Dillon, et al., JBS., 8(3), 347-352 (2003)).
All compounds were diluted in DMSO and gave final assay concentrations of between 10 and 0.01 μM, with the DMSO being at a final concentration of 1% per well. The total assay volume per well was 40 μl.
After 10 minutes incubation at 30° C. the reactions were initiated by the addition of a 10 μl reaction mixture, containing NAD (5 μM), ^3H-NAD and 30mer double stranded DNA-oligos. Designated positive and negative reaction wells were done in combination with compound wells (unknowns) in order to calculate % enzyme activities. The plates were then shaken for 2 minutes and incubated at 30° C. for 45 minutes.
Following the incubation, the reactions were quenched by the addition of 50 μl 30% acetic acid to each well. The plates were then shaken for 1 hour at room temperature.
The plates were transferred to a TopCount NXT (TRADE MARK) (Packard, UK) for scintillation counting. Values recorded are counts per minute (cpm) following a 30 second counting of each well.
The % enzyme activity for each compound is then calculated using the following equation: […]
IC50 values (the concentration at which 50% of the enzyme activity is inhibited) were calculated, which are determined over a range of different concentrations, normally from 10 μM down to 0.001 μM. Such IC50 values are used as comparative values to identify increased compound potencies.

SMILES | IC50 [nM]
CC1C(=O)N(c2cc(Cc3n[nH]c(=O)c4ccccc34)ccc2F)C(=O)N1CCN1CCCC1 (racemic) [Compound 9, 3-(2-fluoro-5-((4-oxo-3,4-dihydrophthalazin-1-yl)methyl)phenyl)-5-methyl-1-(2-(pyrrolidin-1-yl)ethyl)imidazolidine-2,4-dione] | 3.8
C[C@@H]1CN(CCN2C(=O)N(c3cc(Cc4n[nH]c(=O)c5ccccc45)ccc3F)C(=O)[C@@H]2C)C[C@H](C)O1 [Compound 10] | 3.1
C[C@H]1C(=O)N(c2cc(Cc3n[nH]c(=O)c4ccccc34)ccc2F)C(=O)N1CCN(C)C [Compound 11] | 3.3
CCN(C)CCN1C(=O)N(c2cc(Cc3n[nH]c(=O)c4ccccc34)ccc2F)C(=O)[C@@H]1C [Compound 12] | 3
C[C@H]1C(=O)N(c2cc(Cc3n[nH]c(=O)c4ccccc34)ccc2F)C(=O)N1CCNCCF [Compound 13] | 3.1
C=CCN(C)CCN1C(=O)N(c2cc(Cc3n[nH]c(=O)c4ccccc34)ccc2F)C(=O)[C@@H]1C [Compound 14] | 3.5
CCN(CC)CCN1C(=O)N(c2cc(Cc3n[nH]c(=O)c4ccccc34)ccc2F)C(=O)[C@@H]1C [Compound 15] | 3
C[C@H]1C(=O)N(c2cc(Cc3n[nH]c(=O)c4ccccc34)ccc2F)C(=O)N1CCNC(C)(C)C [Compound 16] | 2.9
CC(C)N(C)CCN1C(=O)N(c2cc(Cc3n[nH]c(=O)c4ccccc34)ccc2F)C(=O)[C@@H]1C [Compound 17] | 4
COCCNCCN1C(=O)N(c2cc(Cc3n[nH]c(=O)c4ccccc34)ccc2F)C(=O)[C@@H]1C [Compound 18] | 3.8
C[C@H]1C(=O)N(c2cc(Cc3n[nH]c(=O)c4ccccc34)ccc2F)C(=O)N1CCN1CC=CCC1 [Compound 19] | 4
CC1CCCN1CCN1C(=O)N(c2cc(Cc3n[nH]c(=O)c4ccccc34)ccc2F)C(=O)[C@@H]1C (stereo partly drawn) [Compound 20] | 3.2
C[C@H]1C(=O)N(c2cc(Cc3n[nH]c(=O)c4ccccc34)ccc2F)C(=O)N1CCN1CCCCC1 [Compound 21] | 2.6
CC1CCCCN1CCN1C(=O)N(c2cc(Cc3n[nH]c(=O)c4ccccc34)ccc2F)C(=O)[C@@H]1C (stereo partly drawn) [Compound 22] | 2.9
C[C@H]1C(=O)N(c2cc(Cc3n[nH]c(=O)c4ccccc34)ccc2F)C(=O)N1CCN1CCCC(O)C1 (stereo partly drawn) [Compound 23] | 4.6
CC(C)N(CCO)CCN1C(=O)N(c2cc(Cc3n[nH]c(=O)c4ccccc34)ccc2F)C(=O)[C@@H]1C [Compound 24] | 3.6
C[C@H]1C(=O)N(c2cc(Cc3n[nH]c(=O)c4ccccc34)ccc2F)C(=O)N1CCN1CCSCC1 [Compound 25] | 2.8
C[C@H]1C(=O)N(c2cc(Cc3n[nH]c(=O)c4ccccc34)ccc2F)C(=O)N1CCNCc1ccccn1 [Compound 26] | 3.7
C[C@H]1C(=O)N(c2cc(Cc3n[nH]c(=O)c4ccccc34)ccc2F)C(=O)N1CCN(C)C1CCCCC1 [Compound 27] | 3
CCC1CCCCN1CCN1C(=O)N(c2cc(Cc3n[nH]c(=O)c4ccccc34)ccc2F)C(=O)[C@@H]1C (stereo partly drawn) [Compound 28] | 4.2
C[C@H]1C(=O)N(c2cc(Cc3n[nH]c(=O)c4ccccc34)ccc2F)C(=O)N1CCN1CCCC1c1ccco1 (stereo partly drawn) [Compound 29] | 3.9

— US20080255128A1, “PHTHALAZINONE DERIVATIVES” (priority 2007, published 2008)
